The values below come from patent US20160340422A1 (BEIJING HANMI PHARMACEUTICAL, published 2016).

Test [1] addresses T1, Mouse IL-17A (mouse, UniProt Q62386 26-158, limits assumed).
T1 construct: Bought recombinant protein; also called mice IL-17A
T1 sequence (looked up): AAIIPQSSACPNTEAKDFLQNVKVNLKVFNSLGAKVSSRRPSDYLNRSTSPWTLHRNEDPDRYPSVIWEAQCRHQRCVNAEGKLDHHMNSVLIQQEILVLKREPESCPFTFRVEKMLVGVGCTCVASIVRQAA
Put plainly: ELISA, coated mouse IL-17A, HRP anti-mouse IgG. On the technique in general: An ELISA detects its analyte on a solid surface through an enzyme-linked reagent.

Test [2] has as its target T2, Human IL-17A (human, UniProt Q16552 24-155). Put plainly: cell-based or functional assay.
In test [3] the target is T1, Mouse IL-17A. Put plainly: ELISA on coated mouse IL-17A.
Test [4] has as its target T2, Human IL-17A. The experiment in a line: ELISA, coated human IL-17A.
The target of test [5] is T3, B7 molecule on Raji cells.
T3 construct: whole, on cells; Only 'B7 molecule' is printed; Raji is a human cell line, but neither the species nor the family member is stated; also called ligand-B7 molecule
Put plainly: binding to B7; method not stated in Example 11 (MFI read-out).

Test [6] has as its target T2, Human IL-17A. The experiment in a line: ELISA, coated human IL-17A, HRP anti-mouse IgG.

T2 sequence (Q16552 24-155 limits assumed): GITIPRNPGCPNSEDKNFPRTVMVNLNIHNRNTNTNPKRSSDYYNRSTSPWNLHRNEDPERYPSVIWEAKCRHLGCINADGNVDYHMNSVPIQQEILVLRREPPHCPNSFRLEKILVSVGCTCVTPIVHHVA

B1: Bifunctional fusion protein A (other)
heavy: [about 120 residues skipped]GGGSGGGGSGGGGSGGGGSGGGGSQVQLKESGPGLVQPSQTLSLTCTVSGFSLTNYYVHWVRQPPGKGLEWMGGVWNDGDTSYNSVLRSRLSITRDTSKSQVLLKMSSLQTEDTATYYCAREGREGFVGYYVMDAWGPGASVTVSSAKTTAPSVYPLAPVCGDTTGSSVTLGCLVKGYFPEPVTLTWNSGSLSSGVHTFPAVLQSDLYTLSSSVTVTSSTWPSQSITCNVAHPASSTKVDKKIEPRGPTIKPCPPCKCPAPNLLGGPSVFIFPPKIKDVLMISLSPIVTCVVVDVSEDDPDVQISWFVNNVEVHTAQTQTHREDYNSTLRVVSALPIQHQDWMSGKEFKCKVNNKDLPAPIERTISKPKGSVRAPQVYVLPPPEEEMTKKQVTLTCMVTDFMPEDIYVEWTNNGKTELNYKNTEPVLDSDGSYFMYSKLRVEKKNWVERNSYSCSVVHEGLHNHHTTKSFSRTPGK
light: DIQMTQSPSFLSASVGERVTLSCKASQNINKYLDWFQQKLGEAPKLLIYNADNLHTGIPSRFSGSGSFSDFILTISSLQPEDDATYFCLQRESWPYTFGAGTKLELKRADAAPTVSIFPPSSEQLTSGGASVVCFLNNFYPKDINVKWKIDGSERQNGVLNSWTDQDSKDSTYSMSSTLTLTKDEYERHNSYTCEATHKTSTSPIVKSFNRNEC
notes: CTLA4 ECD fused to the N-terminus of the heavy chain of rat 1D10 / mouse IgG2a anti-IL-17A antibody; also called human CTLA4 ECD-linker-anti-IL-17A mAb hc-A with anti-IL-17A mAb lc-A
As to B1, the binding result with Mouse IL-17A [1] was “binds”. Moreover, the “IC50 for inhibiting GROα secretion from HT-29 cells induced by IL-17A” value with Human IL-17A [2] is 0.911 nM.

B2: Bifunctional fusion protein B (other)
heavy: [about 120 residues skipped]GGGSGGGGSGGGGSGGGGSGGGGSQVQLQESGPGLVKPSETLSLTCTVSGFSLPSHSVSWIRQPPGKGLEWIGIIWNQGGTDYNSAFKSRVTISVDTSKNQFSLKLSSVTAADTAVYYCARNAYITDYYYENYFMDAWGQGTLVTVSS[human IgG1 constant region skipped]
light: DIVMTQSPLSLPVTPGEPASISCKSSQSLLFSENQKNYLAWYLQKPGQSPQLLIYWTSTRQSGVPDRFSGSGSGTDFTLKISRVEAEDVGVYYCQQSYYTPYTFGQGTKVEIKRTVAAPSVFIFPPSDEQLKSGTASVVCLLNNFYPREAKVQWKVDNALQSGNSQESVTEQDSKDSTYSLSSTLTLSKADYEKHKVYACEVTHQGLSSPVTKSFNRGEC
notes: CTLA4 ECD fused to the N-terminus of the heavy chain of humanized 16C10 (from US 7,846,443); also called human CTLA4 ECD-linker-anti-IL-17A mAb hc-B with anti-IL-17A mAb lc-B
For B2, the binding result in the test with Mouse IL-17A [3] is given as “no binding”. The EC50 (commonly the concentration that produces a half-maximal response) with Human IL-17A [4] is 0.103 nM.

B3: Humanized analogue of the bifunctional fusion protein A (other)
heavy: [about 120 residues skipped]GGGSGGGGSGGGGSGGGGSGGGGSEVQLVESGGGLVQPGRSLRLSCAASGFSLTNYAMHWVRQAPGKGLEWVSAIWNDGDIDYADSVEGRFTISRDNAKNSLYLQMNSLRAEDTAVYYCAKEGREGFVGYYVMDAWGQGTLVTVSS[human IgG1 constant region skipped]
light: DIQMTQSPSSLSASVGDRVTITCKASQNINKYLDWYQQKPGKAPKLLIYNADNLHTGVPSRFSGSGSGTDFTLTISSLQPEDVATYYCLQRESWPYTFGQGTKVEIKRTVAAPSVFIFPPSDEQLKSGTASVVCLLNNFYPREAKVQWKVDNALQSGNSQESVTEQDSKDSTYSLSSTLTLSKADYEKHKVYACEVTHQGLSSPVTKSFNRGEC
In the case of B3, the “Mean fluorescence intensity (MFI) for binding to B7” value in test [5] is 20 MFI.

B4: Bifunctional fusion protein C (other)
heavy: QVQLKESGPGLVQPSQTLSLTCTVSGFSLTNYYVHWVRQPPGKGLEWMGGVWNDGDTSYNSVLRSRLSITRDTSKSQVLLKMSSLQTEDTATYYCAREGREGFVGYYVMDAWGPGASVTVSSAKTTAPSVYPLAPVCGDTTGSSVTLGCLVKGYFPEPVTLTWNSGSLSSGVHTFPAVLQSDLYTLSSSVTVTSSTWPSQSITCNVAHPASSTKVDKKIEPRGPTIKPCPPCKCPAPNLLGGPSVFIFPPKIKDVLMISLSPIVTCVVVDVSEDDPDVQISWFVNNVEVHTAQTQTHREDYNSTLRVVSALPIQHQDWMSGKEFKCKVNNKDLPAPIERTISKPKGSVRAPQVYVLPPPEEEMTKKQVTLTCMVTDFMPEDIYVEWTNNGKTELNYKNTEPVLDSDGSYFMYSKLRVEKKNWVERNSYSCSVVHEGLHNHHTTKSFSRTPGK
light: [about 120 residues skipped]GGGSGGGGSGGGGSGGGGSGGGGSDIQMTQSPSFLSASVGERVTLSCKASQNINKYLDWFQQKLGEAPKLLIYNADNLHTGIPSRFSGSGSFSDFILTISSLQPEDDATYFCLQRESWPYTFGAGTKLELKRADAAPTVSIFPPSSEQLTSGGASVVCFLNNFYPKDINVKWKIDGSERQNGVLNSWTDQDSKDSTYSMSSTLTLTKDEYERHNSYTCEATHKTSTSPIVKSFNRNEC
notes: CTLA4 ECD linked to the N-terminus of the light chain of control antibody A
For the molecule B4, the binding result with Mouse IL-17A [1] and with Human IL-17A [6] was “binds” in each case.

B5: Chimera analogue of the bifunctional fusion protein A (other)
heavy: [about 120 residues skipped]GGGSGGGGSGGGGSGGGGSGGGGSQVQLKESGPGLVQPSQTLSLTCTVSGFSLTNYYVHWVRQPPGKGLEWMGGVWNDGDTSYNSVLRSRLSITRDTSKSQVLLKMSSLQTEDTATYYCAREGREGFVGYYVMDAWGPGASVTVSS[human IgG1 constant region skipped]
light: DIQMTQSPSFLSASVGERVTLSCKASQNINKYLDWFQQKLGEAPKLLIYNADNLHTGIPSRFSGSGSFSDFILTISSLQPEDDATYFCLQRESWPYTFGAGTKLELKRTVAAPSVFIFPPSDEQLKSGTASVVCLLNNFYPREAKVQWKVDNALQSGNSQESVTEQDSKDSTYSLSSTLTLSKADYEKHKVYACEVTHQGLSSPVTKSFNRGEC
notes: also called the chimera
For B5, the “Mean fluorescence intensity (MFI) for binding to B7” value in test [5] worked out at 20 MFI.
